US5965787A, “HLA-DRBI peptides with specific binding affinity for HLA-DQ molecules: prevention and treatment of rheumatoid arthritis” (Mayo Foundation for Medical Education and Research, priority 1995, dated 1999)
Entries after “also recorded” stand apart in the source; their conditions may differ. Not every detail of the peptide structures is certain; ends, links or a residue may be inferred. Some entries repeat one wording, which the source may state once for all of them. No end group written: not given here.

Legend:
[1] = system: lymph node cells from HLA-DQ8,H-2Aβ^0 mice; experiment: T cell proliferation assay, lymph node cells of immunized HLA-DQ8 transgenic mice; format: cell-based, mouse; conditions: HLA-DQ8,H-2Aβ^0 mice immunized with 100 μg peptide in CFA; FIGS. 9A, 10
[2] = system: lymph node cells from B10.RQB3-DRB1*1502 positive and negative littermates (H-2A^q); experiment: T cell proliferation assay, lymph node cells of immunized B10.RQB3 mice; format: cell-based, mouse; conditions: B10.RQB3-DRB1*1502 positive and negative mice immunized with 200 μg peptide, in vitro challenge 100 gg/ml, FIG. 3
[3] = system: B10.RIII (H-2^r) lymph node cells; experiment: T cell proliferation assay, lymph node cells of immunized B10.RIII mice; format: cell-based, mouse; conditions: B10.RIII mice immunized with 200 μg peptide; FIG. 3
[4] = target: T1, DRB1*1502 molecule (UniProt P01911+P04224, V115G); experiment: Presentation of HII 250-270 peptide by the DRB1*1502 molecule; parameters: species or system human; conditions: data not shown
T1 construct: containing the entire DRB1*1502 gene; expressed in transfected cells; host or cells: cells of B10.RQB3-DRB1*1502 transgenic mice (genomic transgene from human B cell line AKIBA)
T1 sequence (P04224 26-255, other chains not shown): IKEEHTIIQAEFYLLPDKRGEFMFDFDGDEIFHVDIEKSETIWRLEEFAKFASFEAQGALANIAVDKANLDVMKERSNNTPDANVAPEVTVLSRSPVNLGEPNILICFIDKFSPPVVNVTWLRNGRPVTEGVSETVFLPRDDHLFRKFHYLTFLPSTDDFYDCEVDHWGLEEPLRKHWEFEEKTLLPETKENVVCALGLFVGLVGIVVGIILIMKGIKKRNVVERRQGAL

Sequence | proliferative response of lymph node cells challenged in vitro with the immunizing DRB1 HV3 peptide (65-79) [1] | further results
KDLLEQRRAAVDTYC [Dw14] | failed to proliferate; also recorded: failed to induce proliferation | –
KDFLEDRRAAVDTYC [DRB1*1601 peptide, K-D-F-L-E-D-R-R-A-A-V-D-T-Y-C] | proliferative response | proliferative response of lymph node cells challenged in vitro with the immunizing peptide [2]: only a weak proliferation; proliferative response of lymph node cells challenged in vitro with the immunizing peptide ([2]; listed as DRB1*1602): failed to proliferate; proliferative response of lymph node cells challenged in vitro with the immunizing peptide [3]: very little response
KDLLEQRRAEVDTYC [Dw13] | failed to proliferate; also recorded: failed to induce proliferation; also recorded: lack of proliferative response | –
KDFLEDRRALVDTYC [Dw8.1] | proliferative response | –
KDLLEQKRAAVDTYC [Dw4] | failed to proliferate; also recorded: failed to induce proliferation | –
GPKGQTGKPGIAGFKGEQGPK [HII 250-270, GPKGQTGKPGIAGFKGEQGPK] | – | HII 250-270 peptide presentation by the DRB1*1502 molecule [4]: no evidence
KDILEQARAAVDTYC [Dw2] | proliferative response | –
KDILEQARAAVDTYC [DRB1*1502 peptide, K-D-I-L-E-Q-A-R-A-A-V-D-T-Y-C] | – | proliferative response of lymph node cells challenged in vitro with the immunizing peptide [2]: strong proliferative response; proliferative response of lymph node cells challenged in vitro with the immunizing peptide [3]: very little response
